# From the supplement of paper PMC8728848
# Some of the results follow.
# B1: SCA (Schizophyllum commune) (protein)
# chain: MGIDQGVYLITNAGSGTAATLKDGYVKGWERIKGKEQLNQLWFVKSVKTSASDPGYAAFNLATNKVLDLEKGLADRGTPILGWDYHEGDNQHWVIKKQADGKYYKIQSVKTQTFVDLNNGGKDNGTKIQGWVGSWDETNSHQRWVFNQFSATGSRIKSILDTHPKIHGKVIVEWPDRIYFTPDQYIFEAIWAKTGLADIKPRDPLFQSEAYEKVFKGWVVSRAQEIIKVDGFDILVGSLSLVEKSTQKIKVLDVSVRTSDDKSPDLSQIVFFDPESGRTLVDIPEGYEVNSVII
# How the values were obtained:
# Test in all cases: glycan array binding signal (z-score within array); higher = stronger binding
# Details in all cases: glycan notation: IUPAC condensed, linker removed
# [1] = molecular target: Neu5Ac(a2-6)Gal(b1-4)GlcNAc(b1-2)Man(a1-3)[GlcNAc(b1-2)Man(a1-6)]Man(b1-4)GlcNAc(b1-4)GlcNAc
# Method in brief: (§1)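 Columns mapping to the same glycan were averaged after glycan names were converted to IUPAC-condensed notation. The data come from 3228 arrays in the Consortium for Functional Glycomics database, limited to those with an available protein sequence. Binding is reported as a within-array Z-score averaged across arrays of one protein sequence and across linkers.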
# [2] = molecular target: Neu5Ac(a2-6)Gal(b1-4)GlcNAc(b1-2)Man(a1-3)[GlcNAc(b1-2)Man(b1-4)GlcNAc(b1-2)Man(a1-6)]Man(b1-4)GlcNAc(b1-4)GlcNAc
# Method in brief: as §1
# [3] = molecular target: Neu5Ac(a2-6)Gal(b1-4)GlcNAc(b1-2)Man(a1-3)[Man(a1-6)]Man(b1-4)GlcNAc(b1-4)GlcNAc
# Method in brief: as §1
# [4] = molecular target: Neu5Ac(a2-6)Gal(b1-4)GlcNAc(b1-2)Man(a1-3)[Neu5Ac(a2-6)Gal(b1-4)GlcNAc(b1-2)Man(a1-6)]Man(b1-4)GlcNAc(b1-4)GlcNAc
# Method in brief: as §1
# [5] = molecular target: Neu5Ac(a2-6)Gal(b1-4)GlcNAc(b1-2)Man(a1-6)Man(b1-4)GlcNAc(b1-4)GlcNAc
# Method in brief: as §1
# [6] = molecular target: Neu5Ac(a2-6)Gal(b1-4)GlcNAc(b1-2)Man(a1-6)[Gal(b1-4)GlcNAc(b1-2)Man(a1-3)]Man(b1-4)GlcNAc(b1-4)GlcNAc
# Method in brief: as §1
# [7] = molecular target: Neu5Ac(a2-6)Gal(b1-4)GlcNAc(b1-2)Man(a1-6)[GlcNAc(b1-2)Man(a1-3)]Man(b1-4)GlcNAc(b1-4)GlcNAc
# Method in brief: as §1
# [8] = molecular target: Neu5Ac(a2-6)Gal(b1-4)GlcNAc(b1-2)Man(a1-6)[Man(a1-3)]Man(b1-4)GlcNAc(b1-4)GlcNAc
# Method in brief: as §1
# [9] = molecular target: Neu5Ac(a2-6)Gal(b1-4)GlcNAc(b1-3)Gal(b1-3)GlcNAc
# Method in brief: as §1
# [10] = molecular target: Neu5Ac(a2-6)Gal(b1-4)GlcNAc(b1-3)Gal(b1-4)GlcNAc
# Method in brief: as §1
# [11] = molecular target: Neu5Ac(a2-6)Gal(b1-4)GlcNAc(b1-3)Gal(b1-4)GlcNAc(b1-3)Gal(b1-4)GlcNAc
# Method in brief: as §1
# [12] = molecular target: Neu5Ac(a2-6)Gal(b1-4)GlcNAc(b1-3)Gal(b1-4)[Fuc(a1-3)]GlcNAc(b1-3)Gal(b1-4)[Fuc(a1-3)]GlcNAc
# Method in brief: as §1
# [13] = molecular target: Neu5Ac(a2-6)Gal(b1-4)GlcNAc(b1-3)GalNAc
# Method in brief: as §1
# [14] = molecular target: Neu5Ac(a2-6)Gal(b1-4)GlcNAc6S
# Method in brief: as §1
# Neu5Ac(a2-6)GalNAc = molecular target: Neu5Ac(a2-6)GalNAc
# Method in brief: as §1
# [15] = molecular target: Neu5Ac(a2-6)GalNAc(b1-4)GlcNAc
# Method in brief: as §1
# [16] = molecular target: Neu5Ac(a2-6)GlcNAc(b1-4)GlcNAc
# Method in brief: as §1
# [17] = molecular target: Neu5Ac(a2-6)GlcNAc(b1-4)GlcNAc(b1-4)GlcNAc
# Method in brief: as §1
# Neu5Ac(a2-8)Neu5Ac = molecular target: Neu5Ac(a2-8)Neu5Ac
# Method in brief: as §1
# [18] = molecular target: Neu5Ac(a2-8)Neu5Ac(a2-3)Gal(b1-3)GalNAc(b1-4)[Neu5Ac(a2-8)Neu5Ac(a2-3)]Gal(b1-4)Glc
# Method in brief: as §1
# [19] = molecular target: Neu5Ac(a2-8)Neu5Ac(a2-3)Gal(b1-4)Glc
# Method in brief: as §1
# [20] = molecular target: Neu5Ac(a2-8)Neu5Ac(a2-3)[Gal(b1-3)GalNAc(b1-4)]Gal(b1-4)Glc
# Method in brief: as §1
# [21] = molecular target: Neu5Ac(a2-8)Neu5Ac(a2-3)[GalNAc(b1-4)]Gal(b1-4)Glc
# Method in brief: as §1
# [22] = molecular target: Neu5Ac(a2-8)Neu5Ac(a2-8)Neu5Ac
# Method in brief: as §1
# [23] = molecular target: Neu5Ac(a2-8)Neu5Ac(a2-8)Neu5Ac(a2-3)Gal(b1-4)Glc
# Method in brief: as §1
# [24] = molecular target: Neu5Ac(a2-8)Neu5Ac(a2-8)Neu5Ac(a2-3)[GalNAc(b1-4)]Gal(b1-4)Glc
# Method in brief: as §1
# [25] = molecular target: Neu5Ac(a2-8)Neu5Ac(a2-8)Neu5Ac(a2-8)Neu5Ac(a2-3)[GalNAc(b1-4)]Gal(b1-4)Glc
# Method in brief: as §1
# [26] = molecular target: Neu5Ac(b2-6)Gal(b1-4)GlcNAc
# Method in brief: as §1
# Neu5Ac(b2-6)GalNAc = molecular target: Neu5Ac(b2-6)GalNAc
# Method in brief: as §1
# [27] = molecular target: Neu5Ac9Ac(a2-3)Gal(b1-3)GlcNAc
# Method in brief: as §1
# [28] = molecular target: Neu5Ac9Ac(a2-3)Gal(b1-4)GlcNAc
# Method in brief: as §1
# [29] = molecular target: Neu5Ac9Ac(a2-6)Gal(b1-4)GlcNAc
# Method in brief: as §1
# [30] = molecular target: Neu5Gc(a2-3)Gal(b1-3)GlcNAc
# Method in brief: as §1
# [31] = molecular target: Neu5Gc(a2-3)Gal(b1-3)[Fuc(a1-4)]GlcNAc
# Method in brief: as §1
# Neu5Gc(a2-3)Gal(b1-4)Glc = molecular target: Neu5Gc(a2-3)Gal(b1-4)Glc
# Method in brief: as §1
# [32] = molecular target: Neu5Gc(a2-3)Gal(b1-4)GlcNAc
# Method in brief: as §1
# [33] = molecular target: Neu5Gc(a2-3)Gal(b1-4)[Fuc(a1-3)]GlcNAc
# Method in brief: as §1
# [34] = molecular target: Neu5Gc(a2-6)Gal(b1-4)GlcNAc
# Method in brief: as §1
# Neu5Gc(a2-6)GalNAc = molecular target: Neu5Gc(a2-6)GalNAc
# Method in brief: as §1
# [35] = molecular target: Neu5Gc(b2-6)Gal(b1-4)GlcNAc
# Method in brief: as §1
binder,measurement,setting,value
B1,glycan array binding signal (z-score),[1],-0.155
same,glycan array binding signal (z-score),[2],-0.16
same,glycan array binding signal (z-score),[3],-0.153
same,glycan array binding signal (z-score),[4],-0.16
same,glycan array binding signal (z-score),[5],-0.16
same,glycan array binding signal (z-score),[6],-0.157
same,glycan array binding signal (z-score),[7],-0.157
same,glycan array binding signal (z-score),[8],-0.158
same,glycan array binding signal (z-score),[9],-0.159
same,glycan array binding signal (z-score),[10],-0.16
same,glycan array binding signal (z-score),[11],-0.165
same,glycan array binding signal (z-score),[12],-0.156
same,glycan array binding signal (z-score),[13],0.316
same,glycan array binding signal (z-score),[14],-0.141
same,glycan array binding signal (z-score),Neu5Ac(a2-6)GalNAc,-0.162
same,glycan array binding signal (z-score),[15],-0.162
same,glycan array binding signal (z-score),[16],-0.141
same,glycan array binding signal (z-score),[17],-0.16
same,glycan array binding signal (z-score),Neu5Ac(a2-8)Neu5Ac,-0.161
same,glycan array binding signal (z-score),[18],-0.156
same,glycan array binding signal (z-score),[19],-0.163
same,glycan array binding signal (z-score),[20],-0.161
same,glycan array binding signal (z-score),[21],-0.161
same,glycan array binding signal (z-score),[22],-0.157
same,glycan array binding signal (z-score),[23],-0.16
same,glycan array binding signal (z-score),[24],-0.165
same,glycan array binding signal (z-score),[25],-0.132
same,glycan array binding signal (z-score),[26],-0.159
same,glycan array binding signal (z-score),Neu5Ac(b2-6)GalNAc,-0.162
same,glycan array binding signal (z-score),[27],-0.16
same,glycan array binding signal (z-score),[28],-0.16
same,glycan array binding signal (z-score),[29],-0.161
same,glycan array binding signal (z-score),[30],-0.16
same,glycan array binding signal (z-score),[31],-0.16
same,glycan array binding signal (z-score),Neu5Gc(a2-3)Gal(b1-4)Glc,-0.163
same,glycan array binding signal (z-score),[32],-0.161
same,glycan array binding signal (z-score),[33],-0.161
same,glycan array binding signal (z-score),[34],-0.162
same,glycan array binding signal (z-score),Neu5Gc(a2-6)GalNAc,-0.163
same,glycan array binding signal (z-score),[35],-0.161
